{
  "source": "the antibiotic and cytotoxicity screens of Wong et al. (2023)",
  "note": "This is one part of the list.",
  "data": [
    {"test_system": "HSkMC (human skeletal muscle cells)", "assay": "cytotoxicity call (relative viability < 0.9)", "conditions": "10 µM", "values": [
      {"molecule": "COc1ccc(NC(=O)N(C)C[C@@H]2OCCCC[C@@H](C)Oc3ccc(NC(=O)CCC(F)(F)F)cc3C(=O)N([C@@H](C)CO)C[C@H]2C)cc1", "cytotoxicity call": "inactive"},
      {"molecule": "COc1ccccc1OC[C@@H](O)CO", "cytotoxicity call": "inactive"},
      {"molecule": "CCSC1=C(C#N)C(=O)N[C@@H](CO)S1", "cytotoxicity call": "inactive"},
      {"molecule": "CC(C)[C@@H](N)C(=O)O", "cytotoxicity call": "inactive"},
      {"molecule": "C[C@H]1CC(=O)Nc2c1c(N)nn2C", "cytotoxicity call": "inactive"},
      {"molecule": "C[C@@H]1O[C@H](O[C@H]2[C@H](OC(=O)[C@]34CCC(C)(C)C[C@@H]3C3=CC[C@@H]5[C@@]6(C)CC[C@H](O[C@@H]7O[C@@H](C)[C@H](O[C@@H]8OC[C@@H](O)[C@H](O)[C@H]8O)[C@@H](O)[C@H]7O)C(C)(C)[C@@H]6CC[C@@]5(C)[C@]3(C)C[C@@H]4O)OC[C@H](O)[C@H]2O)[C@H](O)[C@H](O)[C@H]1O[C@@H]1O[C@H](CO)[C@@H](O)[C@H](O)[C@H]1O", "cytotoxicity call": "inactive"},
      {"molecule": "O=C(C[C@@H]1C=C[C@@H](NS(=O)(=O)c2ccccc2)[C@@H](CO)O1)NCc1ccncn1", "cytotoxicity call": "inactive"},
      {"molecule": "Cc1ccc(S(=O)(=O)Nc2ccc3c(c2)C(=O)N([C@@H](C)CO)C[C@@H](C)[C@H](CN(C)C(=O)C2CCCCC2)OCCCC[C@@H](C)O3)cc1", "cytotoxicity call": "inactive"},
      {"molecule": "C[C@H](O)C#Cc1ccc2c(c1)O[C@@H](CN(C)C(=O)C1CCCCC1)[C@H](C)CN([C@H](C)CO)S2(=O)=O", "cytotoxicity call": "inactive"},
      {"molecule": "COC(=O)c1c[nH]c(=S)n1C", "cytotoxicity call": "inactive"},
      {"molecule": "CC(C)NC(=O)Nc1cccc2c1O[C@@H](CN(C)S(=O)(=O)c1ccc(Cl)cc1)[C@@H](C)CN([C@H](C)CO)C2=O", "cytotoxicity call": "inactive"},
      {"molecule": "Cc1ccc(S(=O)(=O)Nc2ccc3c(c2)C(=O)N([C@H](C)CO)C[C@H](C)[C@@H](CN(C)C(=O)Cc2ccccc2)OCCCC[C@H](C)O3)cc1", "cytotoxicity call": "inactive"},
      {"molecule": "CC(C)OC(=O)[C@H](C)N[P@](=O)(OC[C@H]1O[C@@H](n2ccc(=O)[nH]c2=O)[C@@](C)(O)[C@@H]1O)Oc1ccccc1", "cytotoxicity call": "inactive"},
      {"molecule": "Cc1ccc(S(=O)(=O)Nc2ccc3c(c2)CC(=O)N([C@@H](C)CO)C[C@H](C)[C@H](CN(C)Cc2ccc(-c4ccccc4)cc2)O3)cc1", "cytotoxicity call": "active"},
      {"molecule": "Cc1noc(C)c1NC(=O)N(C)C[C@H]1Oc2c(NC(=O)Cn3cnnn3)cccc2C(=O)N([C@H](C)CO)C[C@@H]1C", "cytotoxicity call": "inactive"},
      {"molecule": "C[C@H](CO)N1C[C@H](C)[C@H](CN(C)S(=O)(=O)c2ccccc2)Oc2ncc(C#Cc3ccccc3)cc2C1=O", "cytotoxicity call": "inactive"},
      {"molecule": "C[C@H](CO)N1C[C@H](C)[C@@H](CN(C)Cc2ccncc2)Oc2ccc(NC(=O)Cn3cnnn3)cc2C1=O", "cytotoxicity call": "inactive"},
      {"molecule": "C[C@@H]1CN([C@H](C)CO)C(=O)Cc2cc(NC(=O)C3CCCCC3)ccc2O[C@@H]1CN(C)Cc1ccc(Oc2ccccc2)cc1", "cytotoxicity call": "active"},
      {"molecule": "Cc1noc(C)c1NC(=O)Nc1ccc2c(c1)C(=O)N([C@@H](C)CO)C[C@@H](C)[C@H](CN(C)CC1CC1)OCCCC[C@H](C)O2", "cytotoxicity call": "inactive"},
      {"molecule": "COc1ccc(NC(=O)Nc2ccc3c(c2)C(=O)N([C@H](C)CO)C[C@H](C)[C@H](CN(C)C(=O)CCC(F)(F)F)OCCCC[C@H](C)O3)cc1", "cytotoxicity call": "inactive"},
      {"molecule": "COc1ccc(NC(=O)N(C)C[C@@H]2Oc3c(NC(=O)c4cc(C)nn4C)cccc3C(=O)N([C@@H](C)CO)C[C@H]2C)cc1", "cytotoxicity call": "inactive"},
      {"molecule": "Cc1ccc(S(=O)(=O)N(C)C[C@H]2Oc3ccc(N(C)C)cc3CC(=O)N([C@H](C)CO)C[C@H]2C)cc1", "cytotoxicity call": "inactive"},
      {"molecule": "C[C@H]1CN([C@@H](C)CO)C(=O)c2cc(NC(=O)Nc3ccc(C(F)(F)F)cc3)ccc2O[C@H]1CN(C)S(=O)(=O)c1ccc(Cl)cc1", "cytotoxicity call": "inactive"},
      {"molecule": "COCCNC(=O)C[C@H]1CC[C@@H]2[C@H](COC[C@H](O)CN2S(=O)(=O)c2ccccc2C)O1", "cytotoxicity call": "inactive"},
      {"molecule": "NCc1cc2ccc(F)cc2[nH]c1=O", "cytotoxicity call": "inactive"},
      {"molecule": "C[C@H](CO)N1C[C@H](C)[C@@H](CN(C)C(=O)Nc2ccc3c(c2)OCO3)Oc2ccc(NC(=O)Nc3ccc(C(F)(F)F)cc3)cc2CC1=O", "cytotoxicity call": "inactive"},
      {"molecule": "Cc1cc(Nc2cc(C)on2)nc([C@H]2CCN(C(=O)CN)C2)n1", "cytotoxicity call": "inactive"},
      {"molecule": "C[C@@H]1CN([C@@H](C)CO)C(=O)c2cccc(NC(=O)Nc3ccccc3)c2O[C@@H]1CN(C)Cc1ccc(C(F)(F)F)cc1", "cytotoxicity call": "inactive"},
      {"molecule": "O=C(C[C@@H]1C=C[C@H](NS(=O)(=O)c2ccc(F)cc2)[C@@H](CO)O1)N1CCC(Cc2ccccc2)CC1", "cytotoxicity call": "inactive"},
      {"molecule": "C[C@H]1CN([C@@H](C)CO)C(=O)c2cccc(NC(=O)c3ccc(-c4nccs4)cc3)c2O[C@H]1CN(C)C(=O)Nc1ccc(C(F)(F)F)cc1", "cytotoxicity call": "inactive"}
    ]},
    {"test_system": "S. aureus RN4220", "assay": "growth inhibition call (relative growth <= 0.2)", "conditions": "50 µM", "values": [
      {"molecule": "C[C@H](CO)N1C[C@H](C)[C@H](CN(C)C(=O)Nc2ccc(C(F)(F)F)cc2)Oc2ccc(NC(=O)Cc3ccccc3)cc2CC1=O", "growth inhibition call": "inactive"},
      {"molecule": "C[C@@H]1CCCCO[C@@H](CN(C)C(=O)Nc2ccccc2)[C@@H](C)CN([C@@H](C)CO)C(=O)c2cc(NC(=O)Nc3ccccc3)ccc2O1", "growth inhibition call": "inactive"},
      {"molecule": "C[C@@H]1CCCCO[C@@H](CN(C)C(=O)Nc2ccc3c(c2)OCO3)[C@@H](C)CN([C@@H](C)CO)C(=O)c2cc(NC(=O)Nc3ccc4c(c3)OCO4)ccc2O1", "growth inhibition call": "inactive"},
      {"molecule": "C[C@H](NC(=O)N(C)C[C@H]1OCc2ccccc2-c2c(n(C)c3ccccc23)C(=O)N([C@@H](C)CO)C[C@@H]1C)c1ccccc1", "growth inhibition call": "inactive"},
      {"molecule": "Cc1ccc(S(=O)(=O)N(C)C[C@@H]2Oc3c(NS(C)(=O)=O)cccc3C(=O)N([C@@H](C)CO)C[C@H]2C)cc1", "growth inhibition call": "inactive"},
      {"molecule": "C[C@H](CO)N1C[C@H](C)[C@@H](CN(C)S(=O)(=O)c2cn(C)cn2)Oc2ccc(NS(=O)(=O)c3cn(C)cn3)cc2CC1=O", "growth inhibition call": "inactive"},
      {"molecule": "CC=Cc1ccc2n(c1=O)C[C@@H]1[C@@H](CO)[C@H](C(=O)NCCc3cn(C)cn3)N(C(=O)CC)[C@H]21", "growth inhibition call": "inactive"},
      {"molecule": "COc1ccc(S(=O)(=O)N(C)C[C@@H]2Oc3ccc(NC(=O)Cc4ccccc4)cc3CC(=O)N([C@H](C)CO)C[C@H]2C)cc1", "growth inhibition call": "inactive"},
      {"molecule": "Cc1ccc(S(=O)(=O)Nc2ccc3c(c2)C(=O)N([C@@H](C)CO)C[C@H](C)[C@@H](CN(C)Cc2ccc(-c4ccccc4)cc2)O3)cc1", "growth inhibition call": "inactive"},
      {"molecule": "CO[C@@H]1CN(C)C(=O)c2ccc(NC(=O)c3ccc(F)cc3)cc2OC[C@H](C)N(C(=O)CN(C)C)C[C@@H]1C", "growth inhibition call": "inactive"},
      {"molecule": "COc1ccc(NC(=O)N(C)C[C@@H]2OCCCC[C@@H](C)Oc3ccc(NC(=O)CCC(F)(F)F)cc3C(=O)N([C@@H](C)CO)C[C@H]2C)cc1", "growth inhibition call": "inactive"},
      {"molecule": "COc1ccccc1OC[C@@H](O)CO", "growth inhibition call": "inactive"},
      {"molecule": "CCSC1=C(C#N)C(=O)N[C@@H](CO)S1", "growth inhibition call": "inactive"},
      {"molecule": "CC(C)[C@@H](N)C(=O)O", "growth inhibition call": "inactive"},
      {"molecule": "C[C@H]1CC(=O)Nc2c1c(N)nn2C", "growth inhibition call": "inactive"},
      {"molecule": "C[C@@H]1O[C@H](O[C@H]2[C@H](OC(=O)[C@]34CCC(C)(C)C[C@@H]3C3=CC[C@@H]5[C@@]6(C)CC[C@H](O[C@@H]7O[C@@H](C)[C@H](O[C@@H]8OC[C@@H](O)[C@H](O)[C@H]8O)[C@@H](O)[C@H]7O)C(C)(C)[C@@H]6CC[C@@]5(C)[C@]3(C)C[C@@H]4O)OC[C@H](O)[C@H]2O)[C@H](O)[C@H](O)[C@H]1O[C@@H]1O[C@H](CO)[C@@H](O)[C@H](O)[C@H]1O", "growth inhibition call": "inactive"},
      {"molecule": "O=C(C[C@@H]1C=C[C@@H](NS(=O)(=O)c2ccccc2)[C@@H](CO)O1)NCc1ccncn1", "growth inhibition call": "inactive"},
      {"molecule": "Cc1ccc(S(=O)(=O)Nc2ccc3c(c2)C(=O)N([C@@H](C)CO)C[C@@H](C)[C@H](CN(C)C(=O)C2CCCCC2)OCCCC[C@@H](C)O3)cc1", "growth inhibition call": "inactive"},
      {"molecule": "C[C@H](O)C#Cc1ccc2c(c1)O[C@@H](CN(C)C(=O)C1CCCCC1)[C@H](C)CN([C@H](C)CO)S2(=O)=O", "growth inhibition call": "inactive"},
      {"molecule": "COC(=O)c1c[nH]c(=S)n1C", "growth inhibition call": "inactive"},
      {"molecule": "CC(C)NC(=O)Nc1cccc2c1O[C@@H](CN(C)S(=O)(=O)c1ccc(Cl)cc1)[C@@H](C)CN([C@H](C)CO)C2=O", "growth inhibition call": "inactive"},
      {"molecule": "Cc1ccc(S(=O)(=O)Nc2ccc3c(c2)C(=O)N([C@H](C)CO)C[C@H](C)[C@@H](CN(C)C(=O)Cc2ccccc2)OCCCC[C@H](C)O3)cc1", "growth inhibition call": "inactive"},
      {"molecule": "CC(C)OC(=O)[C@H](C)N[P@](=O)(OC[C@H]1O[C@@H](n2ccc(=O)[nH]c2=O)[C@@](C)(O)[C@@H]1O)Oc1ccccc1", "growth inhibition call": "inactive"},
      {"molecule": "Cc1ccc(S(=O)(=O)Nc2ccc3c(c2)CC(=O)N([C@@H](C)CO)C[C@H](C)[C@H](CN(C)Cc2ccc(-c4ccccc4)cc2)O3)cc1", "growth inhibition call": "inactive"},
      {"molecule": "Cc1noc(C)c1NC(=O)N(C)C[C@H]1Oc2c(NC(=O)Cn3cnnn3)cccc2C(=O)N([C@H](C)CO)C[C@@H]1C", "growth inhibition call": "inactive"},
      {"molecule": "C[C@H](CO)N1C[C@H](C)[C@H](CN(C)S(=O)(=O)c2ccccc2)Oc2ncc(C#Cc3ccccc3)cc2C1=O", "growth inhibition call": "inactive"},
      {"molecule": "C[C@H](CO)N1C[C@H](C)[C@@H](CN(C)Cc2ccncc2)Oc2ccc(NC(=O)Cn3cnnn3)cc2C1=O", "growth inhibition call": "inactive"},
      {"molecule": "C[C@@H]1CN([C@H](C)CO)C(=O)Cc2cc(NC(=O)C3CCCCC3)ccc2O[C@@H]1CN(C)Cc1ccc(Oc2ccccc2)cc1", "growth inhibition call": "inactive"},
      {"molecule": "Cc1noc(C)c1NC(=O)Nc1ccc2c(c1)C(=O)N([C@@H](C)CO)C[C@@H](C)[C@H](CN(C)CC1CC1)OCCCC[C@H](C)O2", "growth inhibition call": "inactive"},
      {"molecule": "COc1ccc(NC(=O)Nc2ccc3c(c2)C(=O)N([C@H](C)CO)C[C@H](C)[C@H](CN(C)C(=O)CCC(F)(F)F)OCCCC[C@H](C)O3)cc1", "growth inhibition call": "inactive"},
      {"molecule": "COc1ccc(NC(=O)N(C)C[C@@H]2Oc3c(NC(=O)c4cc(C)nn4C)cccc3C(=O)N([C@@H](C)CO)C[C@H]2C)cc1", "growth inhibition call": "inactive"},
      {"molecule": "Cc1ccc(S(=O)(=O)N(C)C[C@H]2Oc3ccc(N(C)C)cc3CC(=O)N([C@H](C)CO)C[C@H]2C)cc1", "growth inhibition call": "inactive"},
      {"molecule": "C[C@H]1CN([C@@H](C)CO)C(=O)c2cc(NC(=O)Nc3ccc(C(F)(F)F)cc3)ccc2O[C@H]1CN(C)S(=O)(=O)c1ccc(Cl)cc1", "growth inhibition call": "inactive"}
    ]}
  ]
}
